# According to publication PMC4336329 (PLoS ONE, 2015):
# The whole screen tested about 310,000 compounds, of which about 2,200 (0.71%) showed an effect of 50% or more. The effect is printed as a negative number. This is one part of the list.
# Biological target: human ether-à-go-go-related gene (hERG) potassium channel (human, UniProt Q12809)
# Assay: primary screen, population patch clamp on CHO cells stably expressing hERG
# human ether-à-go-go-related gene (hERG) potassium channel, sequence (Q12809 whole entry, looked up): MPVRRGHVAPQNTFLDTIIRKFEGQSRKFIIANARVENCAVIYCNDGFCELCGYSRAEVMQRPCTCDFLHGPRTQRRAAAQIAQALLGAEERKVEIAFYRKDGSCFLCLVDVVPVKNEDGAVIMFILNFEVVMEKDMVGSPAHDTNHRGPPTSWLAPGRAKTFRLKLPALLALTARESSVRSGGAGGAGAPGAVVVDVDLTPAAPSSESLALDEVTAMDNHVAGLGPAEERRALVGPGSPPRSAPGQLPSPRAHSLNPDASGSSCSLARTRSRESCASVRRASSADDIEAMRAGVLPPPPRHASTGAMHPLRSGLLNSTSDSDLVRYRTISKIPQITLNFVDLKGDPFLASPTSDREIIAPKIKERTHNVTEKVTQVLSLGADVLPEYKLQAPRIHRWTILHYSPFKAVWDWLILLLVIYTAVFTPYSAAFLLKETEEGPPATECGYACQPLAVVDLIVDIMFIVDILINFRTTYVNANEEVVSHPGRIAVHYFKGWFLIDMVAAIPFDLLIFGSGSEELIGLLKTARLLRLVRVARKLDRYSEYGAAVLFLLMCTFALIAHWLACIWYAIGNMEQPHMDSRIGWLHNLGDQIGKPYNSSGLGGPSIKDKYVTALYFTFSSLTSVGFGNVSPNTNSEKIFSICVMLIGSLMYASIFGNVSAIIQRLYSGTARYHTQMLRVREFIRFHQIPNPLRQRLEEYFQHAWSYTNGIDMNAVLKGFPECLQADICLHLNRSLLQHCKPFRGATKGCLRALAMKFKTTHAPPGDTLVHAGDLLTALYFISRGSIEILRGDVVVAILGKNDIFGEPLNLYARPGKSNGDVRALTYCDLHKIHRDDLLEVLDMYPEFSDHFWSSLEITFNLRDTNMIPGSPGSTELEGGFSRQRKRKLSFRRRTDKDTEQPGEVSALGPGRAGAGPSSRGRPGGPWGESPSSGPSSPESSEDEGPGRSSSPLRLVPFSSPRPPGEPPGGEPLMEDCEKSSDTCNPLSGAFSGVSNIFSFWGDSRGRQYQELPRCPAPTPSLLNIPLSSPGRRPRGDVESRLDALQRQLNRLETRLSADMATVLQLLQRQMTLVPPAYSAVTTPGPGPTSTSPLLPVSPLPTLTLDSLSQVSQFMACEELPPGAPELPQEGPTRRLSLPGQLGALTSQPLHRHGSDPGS
row,Structure (SMILES),"hERG current change (%, negative = inhibition) at 1uM [%]"
1,Cc1cc(C)c(-c2cc(NC(=O)CSc3nncn3C)n(-c3ccccc3)n2)cc1C,-2.25
2,CCCN(Cc1nnc(-c2ccccc2Cl)o1)C(=O)c1ccc(C)c(S(=O)(=O)N2CCOCC2)c1,-21.9
3,CCC1=Nc2cc(C(=O)NCCN3CCOCC3)ccc2Sc2ccccc21,5.95
4,CCOC(=O)N1CCN(Cc2ccc3c(c2)OCO3)CC1,12.9
5,COc1ccc(S(=O)(=O)N(C)CC(=O)N2CCCCCC2)cc1OC,9.68
6,CCC(Sc1nc(C)cc(=O)[nH]1)C(=O)Nc1sc2c(c1C#N)CCCC2 (centres unmarked),-0.53
7,O=C(COC(=O)Cc1ccsc1)Nc1ccc(Br)cc1F,15.9
8,COc1ccc(C2OC(=O)c3ccccc3S2)cc1 (centres unmarked),12.7
9,O=c1[nH]c(CSc2nnc(NCCCN3CCOCC3)s2)nc2cc(Cl)ccc12,4.13
10,Cc1cccc(N2C(N)=C(C#N)C(C#N)(C#N)C2c2ccccc2)c1 (centres unmarked),4.47
11,CCCCOc1ccc(C(=O)NCC2(c3ccccc3)CCOCC2)cc1,-12
12,Cc1cc(/C=C2\SC(N)=NC2=O)c(C)n1-c1ccc(F)cc1,13.2
13,CCCCN(C)C(=O)c1nc2ccccn2c1CN1CCN(c2cnccn2)CC1,7.66
14,COc1ccc(C)cc1S(=O)(=O)N1CCC(C(=O)NCCc2ccccc2)CC1,10.9
15,COc1ccc(CC(=O)Nc2ccccc2Oc2ccccc2)cc1,10.7
16,COc1ccc(C(=O)CSc2nnc(CNC(=O)c3ccc(S(=O)(=O)N(C)C)cc3)o2)cc1,7.41
17,CCNc1nc(OCC)nc(N2CCC(Cc3ccccc3)CC2)n1,9.21
18,COc1ccc(CNC(=O)CSc2nnnn2C)cc1OC,13.5
19,COc1ccccc1N1CCN(S(=O)(=O)c2ccc(-n3cnnn3)cc2)CC1,-17.5
20,Cc1ccc2[nH]c(=O)c(CN(CCCN3CCOCC3)C(=O)Nc3ccc(Cl)cc3)cc2c1,-13.8
21,COc1ccc(NC(=O)CSc2nc(=O)n(CCN3CCOCC3)c3c2CCCC3)c(OC)c1,-5.23
22,CC(C)=CCN1CCN(Cc2c[nH]c3ccccc23)CC1CCO (centres unmarked),12

row,Structure (SMILES),"hERG current change (%, negative = inhibition) at 1uM [%]"
1,Fc1ccc(/C=N/Nc2nccnc2Cl)cc1,13
2,CC1=C(C(=O)OCCOc2ccccc2)C(c2ccc(C)o2)C2=C(CC(C)(C)CC2=O)N1 (centres unmarked),0.634
3,Cc1ccc(-c2nc3ccccc3s2)cc1NC(=S)NC(=O)/C=C/c1ccco1,-0.204
4,COc1ccc(-c2cc(C(=O)N3CC4(C)CC3CC(C)(C)C4)no2)cc1OC (centres unmarked),-2.32
5,CCOc1ccc(NC(=O)CC(=O)Nc2ccc(OCC)cc2)cc1,12.4
6,COc1ccccc1-c1coc2c(CN(C)C)c(O)ccc2c1=O,14.7
7,CC(C)S(=O)(=O)c1cnc(N2CCOCC2)nc1N,13.9
8,Cc1ccc(-n2c(/C=C/c3ccc4c(c3)OCO4)nc3ccccc3c2=O)cc1,0.589
9,COc1ccc(C(=O)C2CCCN(C(=O)c3cc(C)on3)C2)cc1F (centres unmarked),0.713
10,Cc1cccc(SCC(=O)Nc2ccc3c(c2)OCCO3)c1,-3.88
11,COC(=O)c1cn(CCOc2ccccc2F)c2ccccc12,-2.35
12,CCOc1ccc(-c2cn3ccccc3n2)cc1,-1.48
13,Cc1ccc(NC(=O)c2cccs2)cc1,-0.304
14,COc1ccc([C@H]2CC(=O)C=C(c3ccc(Oc4ccccc4)cc3)C2)cc1OC,9.03
15,Fc1ccccc1/C=N/n1c(-c2cccnc2)n[nH]c1=S,12.9
16,Cl.O=C(CN1CCN(Cc2ccccc2)CC1)N1CCCc2ccccc21.O=C(O)C(=O)O,12.8
17,CCC(Sc1nc(-c2ccccc2)c(-c2ccccc2)[nH]1)C(=O)O (centres unmarked),52.5
18,CC1CCCC(NC(=O)Cn2cc(C(F)(F)F)cc(Cl)c2=O)C1C (centres unmarked),9.61
19,c1ccc(Oc2c3ccccc3nc3ccccc23)cc1,16.4
20,Cc1cc(C)c(C#N)c(Oc2ccc(F)cc2)n1,-2.01
21,Cc1ccc(NC(=O)c2ccc3snnc3c2)cc1C,0.389
22,O=C(CCS(=O)(=O)c1ccc(Cl)cc1)Nc1nnc(-c2cccs2)o1,5.33
